In publication PMC3308992:
These are yes or no findings as the source states them, for the method shown. Binding seen in cells or lysates may run through a third protein. Some results given as binding are weak or reduced against the parent protein; the word gives no strength. For part of these data: Where a sequence is shown, tags or fusion partners need not be part of it. Blank lines part the entries; values can stand above or below the substance they belong to.

The chains behind the UniProt entries cited, without tags or fusion partners. Where a name states a change or a piece, a line headed by the entry shows the natural chain unless it says otherwise. A line that says so, or that is headed by a name, gives the form on record, which may keep a tag or linker. Residues count along the entry.
UniProt P60322: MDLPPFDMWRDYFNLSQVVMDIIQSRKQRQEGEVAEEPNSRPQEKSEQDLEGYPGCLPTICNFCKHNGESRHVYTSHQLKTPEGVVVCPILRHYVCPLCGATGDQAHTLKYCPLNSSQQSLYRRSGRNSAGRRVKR
Flag-tagged NANOS2 with the first 5 amino acids deleted: residues 6-136 of P60322
Flag-tagged NANOS2-ΔN10: residues 11-136 of P60322
Flag-tagged NANOS2 deletion mutant lacking residues 6–10 (P60322, form named): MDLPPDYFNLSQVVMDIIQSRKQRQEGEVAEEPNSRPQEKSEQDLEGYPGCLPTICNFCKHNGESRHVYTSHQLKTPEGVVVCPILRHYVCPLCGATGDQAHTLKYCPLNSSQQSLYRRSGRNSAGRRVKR
UniProt Q8C5L3: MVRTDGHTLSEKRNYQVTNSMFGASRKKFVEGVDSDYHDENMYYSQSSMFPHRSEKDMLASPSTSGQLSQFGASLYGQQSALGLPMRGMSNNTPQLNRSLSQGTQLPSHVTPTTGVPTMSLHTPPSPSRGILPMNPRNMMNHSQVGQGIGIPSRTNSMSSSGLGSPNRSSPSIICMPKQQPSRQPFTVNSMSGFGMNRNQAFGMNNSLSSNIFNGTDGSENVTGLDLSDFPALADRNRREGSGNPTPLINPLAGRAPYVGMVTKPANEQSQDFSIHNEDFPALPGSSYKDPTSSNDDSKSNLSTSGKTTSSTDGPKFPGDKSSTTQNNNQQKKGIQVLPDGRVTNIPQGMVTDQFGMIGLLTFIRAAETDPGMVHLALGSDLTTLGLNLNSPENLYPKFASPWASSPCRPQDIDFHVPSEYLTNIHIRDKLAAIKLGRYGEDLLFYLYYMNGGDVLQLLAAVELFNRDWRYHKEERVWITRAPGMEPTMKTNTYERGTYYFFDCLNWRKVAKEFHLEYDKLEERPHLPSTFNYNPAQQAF
UniProt Q8K0V4: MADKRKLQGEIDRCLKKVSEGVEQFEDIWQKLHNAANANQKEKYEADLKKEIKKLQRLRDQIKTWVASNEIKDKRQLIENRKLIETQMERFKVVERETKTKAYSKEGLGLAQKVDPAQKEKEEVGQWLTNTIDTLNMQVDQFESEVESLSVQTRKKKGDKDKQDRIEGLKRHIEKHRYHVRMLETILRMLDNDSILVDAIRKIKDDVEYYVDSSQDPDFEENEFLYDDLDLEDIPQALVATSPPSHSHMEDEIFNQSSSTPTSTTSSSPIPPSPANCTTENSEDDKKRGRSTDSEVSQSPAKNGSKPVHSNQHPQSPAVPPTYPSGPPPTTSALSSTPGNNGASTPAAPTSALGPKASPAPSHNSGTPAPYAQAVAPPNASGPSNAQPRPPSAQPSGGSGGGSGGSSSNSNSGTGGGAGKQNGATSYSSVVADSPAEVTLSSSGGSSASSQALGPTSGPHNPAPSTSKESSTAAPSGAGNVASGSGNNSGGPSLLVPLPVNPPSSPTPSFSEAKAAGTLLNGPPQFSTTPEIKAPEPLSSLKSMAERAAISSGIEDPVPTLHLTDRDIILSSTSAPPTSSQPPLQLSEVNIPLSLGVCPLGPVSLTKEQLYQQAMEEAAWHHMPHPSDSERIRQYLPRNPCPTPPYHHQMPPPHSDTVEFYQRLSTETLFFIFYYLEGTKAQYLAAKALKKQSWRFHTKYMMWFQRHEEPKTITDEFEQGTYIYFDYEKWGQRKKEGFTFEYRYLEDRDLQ
UniProt Q8K3P5: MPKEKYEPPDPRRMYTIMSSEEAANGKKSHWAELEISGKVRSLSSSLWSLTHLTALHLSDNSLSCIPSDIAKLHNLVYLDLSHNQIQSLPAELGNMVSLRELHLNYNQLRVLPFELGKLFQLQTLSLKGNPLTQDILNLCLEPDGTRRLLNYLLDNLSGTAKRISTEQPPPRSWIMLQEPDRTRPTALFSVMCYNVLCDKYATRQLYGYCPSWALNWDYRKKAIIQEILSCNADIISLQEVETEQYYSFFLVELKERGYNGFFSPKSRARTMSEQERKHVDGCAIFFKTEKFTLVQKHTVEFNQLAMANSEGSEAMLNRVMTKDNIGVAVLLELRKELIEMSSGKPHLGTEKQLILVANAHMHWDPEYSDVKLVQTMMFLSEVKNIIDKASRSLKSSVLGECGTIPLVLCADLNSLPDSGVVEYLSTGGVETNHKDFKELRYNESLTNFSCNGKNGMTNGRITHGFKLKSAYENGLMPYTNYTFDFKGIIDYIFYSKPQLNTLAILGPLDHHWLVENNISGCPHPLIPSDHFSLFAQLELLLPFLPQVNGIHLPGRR
UniProt Q9JKY0: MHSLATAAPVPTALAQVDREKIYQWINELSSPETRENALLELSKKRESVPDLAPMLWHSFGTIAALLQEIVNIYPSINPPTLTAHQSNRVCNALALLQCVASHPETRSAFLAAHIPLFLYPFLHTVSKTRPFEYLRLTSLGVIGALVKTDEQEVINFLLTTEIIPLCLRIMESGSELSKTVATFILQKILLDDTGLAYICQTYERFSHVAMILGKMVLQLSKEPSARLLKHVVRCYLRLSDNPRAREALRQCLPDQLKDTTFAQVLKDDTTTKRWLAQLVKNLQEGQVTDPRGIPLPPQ
UniProt Q92600: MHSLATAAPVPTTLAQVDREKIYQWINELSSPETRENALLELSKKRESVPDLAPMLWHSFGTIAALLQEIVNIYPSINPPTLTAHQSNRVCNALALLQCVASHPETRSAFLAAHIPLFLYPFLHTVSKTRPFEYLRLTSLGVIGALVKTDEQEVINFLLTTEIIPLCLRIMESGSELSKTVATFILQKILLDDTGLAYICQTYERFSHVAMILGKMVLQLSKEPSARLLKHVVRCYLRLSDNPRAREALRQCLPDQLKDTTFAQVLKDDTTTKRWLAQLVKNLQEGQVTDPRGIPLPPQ
UniProt O75175: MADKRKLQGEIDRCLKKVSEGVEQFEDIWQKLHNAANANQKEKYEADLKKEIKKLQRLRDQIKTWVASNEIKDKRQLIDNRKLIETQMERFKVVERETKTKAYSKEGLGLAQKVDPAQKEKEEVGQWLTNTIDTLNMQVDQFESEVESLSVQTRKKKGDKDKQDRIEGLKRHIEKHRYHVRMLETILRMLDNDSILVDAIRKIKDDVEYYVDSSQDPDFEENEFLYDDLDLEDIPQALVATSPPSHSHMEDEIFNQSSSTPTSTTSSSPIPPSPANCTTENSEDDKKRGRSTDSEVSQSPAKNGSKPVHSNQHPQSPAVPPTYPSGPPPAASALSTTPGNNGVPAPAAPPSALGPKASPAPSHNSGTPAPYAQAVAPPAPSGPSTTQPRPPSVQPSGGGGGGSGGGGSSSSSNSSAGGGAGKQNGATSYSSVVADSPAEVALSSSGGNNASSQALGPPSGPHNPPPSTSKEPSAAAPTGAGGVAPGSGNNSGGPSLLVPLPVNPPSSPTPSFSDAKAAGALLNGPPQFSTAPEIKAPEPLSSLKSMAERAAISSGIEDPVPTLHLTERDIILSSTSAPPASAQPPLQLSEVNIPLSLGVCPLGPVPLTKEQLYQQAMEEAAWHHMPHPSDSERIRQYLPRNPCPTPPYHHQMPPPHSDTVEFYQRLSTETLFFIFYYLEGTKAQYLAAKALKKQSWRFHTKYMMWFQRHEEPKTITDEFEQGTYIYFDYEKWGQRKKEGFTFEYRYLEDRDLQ
UniProt A5YKK6: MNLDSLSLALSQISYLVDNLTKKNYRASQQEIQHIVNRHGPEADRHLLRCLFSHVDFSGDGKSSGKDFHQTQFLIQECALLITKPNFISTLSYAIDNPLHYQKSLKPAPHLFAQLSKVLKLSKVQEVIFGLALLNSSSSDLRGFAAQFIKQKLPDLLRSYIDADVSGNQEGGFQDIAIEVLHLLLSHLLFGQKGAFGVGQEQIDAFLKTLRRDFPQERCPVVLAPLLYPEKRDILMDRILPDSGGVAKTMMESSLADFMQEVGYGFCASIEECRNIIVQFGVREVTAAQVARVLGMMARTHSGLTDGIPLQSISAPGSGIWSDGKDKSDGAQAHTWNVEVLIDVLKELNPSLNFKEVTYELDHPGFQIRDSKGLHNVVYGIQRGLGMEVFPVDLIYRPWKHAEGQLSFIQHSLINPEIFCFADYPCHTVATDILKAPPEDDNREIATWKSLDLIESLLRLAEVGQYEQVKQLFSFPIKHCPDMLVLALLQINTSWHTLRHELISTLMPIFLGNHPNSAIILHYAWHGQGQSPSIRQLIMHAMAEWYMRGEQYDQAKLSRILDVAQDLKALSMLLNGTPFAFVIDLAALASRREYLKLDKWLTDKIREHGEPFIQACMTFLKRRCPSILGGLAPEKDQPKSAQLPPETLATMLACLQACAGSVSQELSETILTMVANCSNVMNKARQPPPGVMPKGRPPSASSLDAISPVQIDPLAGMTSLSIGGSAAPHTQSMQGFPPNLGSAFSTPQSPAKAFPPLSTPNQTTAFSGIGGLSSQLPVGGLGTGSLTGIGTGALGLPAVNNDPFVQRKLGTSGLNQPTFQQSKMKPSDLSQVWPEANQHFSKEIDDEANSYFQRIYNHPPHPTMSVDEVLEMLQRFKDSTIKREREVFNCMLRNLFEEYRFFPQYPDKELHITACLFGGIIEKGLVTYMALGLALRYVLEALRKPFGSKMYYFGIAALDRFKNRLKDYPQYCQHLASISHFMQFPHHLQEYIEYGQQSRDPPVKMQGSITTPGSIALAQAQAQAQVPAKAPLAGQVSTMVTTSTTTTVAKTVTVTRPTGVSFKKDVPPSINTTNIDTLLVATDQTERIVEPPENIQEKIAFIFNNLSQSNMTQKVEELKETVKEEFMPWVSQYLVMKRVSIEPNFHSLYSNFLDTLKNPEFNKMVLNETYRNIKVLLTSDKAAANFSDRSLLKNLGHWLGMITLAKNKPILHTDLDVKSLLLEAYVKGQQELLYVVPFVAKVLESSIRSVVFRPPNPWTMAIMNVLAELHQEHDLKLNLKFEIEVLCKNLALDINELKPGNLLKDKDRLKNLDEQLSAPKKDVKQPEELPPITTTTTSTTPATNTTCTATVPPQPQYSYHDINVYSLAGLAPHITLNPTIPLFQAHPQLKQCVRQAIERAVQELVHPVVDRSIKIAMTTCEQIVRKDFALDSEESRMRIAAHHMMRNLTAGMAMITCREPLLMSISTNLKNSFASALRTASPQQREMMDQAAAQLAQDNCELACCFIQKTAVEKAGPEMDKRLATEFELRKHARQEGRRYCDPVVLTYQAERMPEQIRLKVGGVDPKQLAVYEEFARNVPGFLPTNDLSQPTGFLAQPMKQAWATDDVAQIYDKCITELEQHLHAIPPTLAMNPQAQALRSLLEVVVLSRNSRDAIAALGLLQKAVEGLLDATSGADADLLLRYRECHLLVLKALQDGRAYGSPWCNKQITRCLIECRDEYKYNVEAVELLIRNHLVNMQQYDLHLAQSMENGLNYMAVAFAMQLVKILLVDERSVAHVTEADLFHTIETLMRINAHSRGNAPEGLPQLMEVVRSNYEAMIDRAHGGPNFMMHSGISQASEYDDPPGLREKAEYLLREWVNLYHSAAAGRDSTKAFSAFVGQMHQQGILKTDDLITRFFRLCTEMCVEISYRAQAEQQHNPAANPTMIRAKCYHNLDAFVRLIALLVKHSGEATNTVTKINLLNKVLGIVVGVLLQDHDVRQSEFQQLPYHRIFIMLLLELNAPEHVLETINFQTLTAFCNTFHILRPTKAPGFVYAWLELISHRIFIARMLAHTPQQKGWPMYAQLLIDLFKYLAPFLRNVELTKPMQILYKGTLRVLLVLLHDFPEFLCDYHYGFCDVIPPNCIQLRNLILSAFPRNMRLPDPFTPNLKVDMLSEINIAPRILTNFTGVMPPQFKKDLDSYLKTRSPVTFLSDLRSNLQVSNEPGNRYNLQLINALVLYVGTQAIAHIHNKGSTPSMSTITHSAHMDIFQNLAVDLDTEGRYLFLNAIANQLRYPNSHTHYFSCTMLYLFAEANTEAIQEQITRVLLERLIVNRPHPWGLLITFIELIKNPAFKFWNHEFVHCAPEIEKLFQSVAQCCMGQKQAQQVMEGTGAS
UniProt Q9UIV1: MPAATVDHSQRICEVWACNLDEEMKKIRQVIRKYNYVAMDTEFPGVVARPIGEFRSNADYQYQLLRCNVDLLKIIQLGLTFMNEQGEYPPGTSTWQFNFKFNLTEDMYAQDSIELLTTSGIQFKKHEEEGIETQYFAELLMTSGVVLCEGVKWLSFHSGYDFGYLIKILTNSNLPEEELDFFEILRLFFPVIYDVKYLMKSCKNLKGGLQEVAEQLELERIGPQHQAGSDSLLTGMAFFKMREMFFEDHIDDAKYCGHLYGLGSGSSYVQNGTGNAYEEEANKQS

How the values were obtained:
[1] = biological target: Flag-tagged NANOS2-ΔN10 (mouse) (UniProt P60322); assay: co-IP; Flag-tagged NANOS2 or deletion mutants precipitated with anti-FLAG M2 affinity gel from extracts of HeLa cells co-transfected with 3×HA-Cnot6; 50 mM Tris-HCl pH 7.4, 150 mM NaCl, 0.5% NP-40; 3 h at 4°C; western blotting
[2] = biological target: Flag-tagged NANOS2 deletion mutant lacking residues 6–10 (mouse) (UniProt P60322); assay: as above
[3] = biological target: Flag-tagged NANOS2 with the first 5 amino acids deleted (mouse) (UniProt P60322); assay: as above
[4] = biological target: Flag-tagged full length NANOS2 (mouse) (UniProt P60322); assay: as above
GST-fused CNOT10 (mouse) = GST-fused CNOT10 (mouse) (UniProt Q8BH15); assay: pull-down; E. coli extracts expressing GST-fused CNOT proteins mixed with 1–5 mg purified MBP fusion, 2 h at 4°C, then glutathione-sepharose 4FF; 25 mM HEPES-KOH pH 7.4, 150 mM NaCl, 0.1% NP-40; washed with binding buffer supplemented with 350 mM NaCl; anti-MBP western blotting; only the binder purified
GST-fused CNOT2 (mouse) = GST-fused CNOT2 (mouse) (UniProt Q8C5L3); assay: as above
GST-fused CNOT3 (mouse) = GST-fused CNOT3 (mouse) (UniProt Q8K0V4); assay: as above
GST-fused CNOT4 (mouse) = biological target: T1, GST-fused CNOT4 (mouse) (UniProt Q8BT14); assay: as above
T1 sequence: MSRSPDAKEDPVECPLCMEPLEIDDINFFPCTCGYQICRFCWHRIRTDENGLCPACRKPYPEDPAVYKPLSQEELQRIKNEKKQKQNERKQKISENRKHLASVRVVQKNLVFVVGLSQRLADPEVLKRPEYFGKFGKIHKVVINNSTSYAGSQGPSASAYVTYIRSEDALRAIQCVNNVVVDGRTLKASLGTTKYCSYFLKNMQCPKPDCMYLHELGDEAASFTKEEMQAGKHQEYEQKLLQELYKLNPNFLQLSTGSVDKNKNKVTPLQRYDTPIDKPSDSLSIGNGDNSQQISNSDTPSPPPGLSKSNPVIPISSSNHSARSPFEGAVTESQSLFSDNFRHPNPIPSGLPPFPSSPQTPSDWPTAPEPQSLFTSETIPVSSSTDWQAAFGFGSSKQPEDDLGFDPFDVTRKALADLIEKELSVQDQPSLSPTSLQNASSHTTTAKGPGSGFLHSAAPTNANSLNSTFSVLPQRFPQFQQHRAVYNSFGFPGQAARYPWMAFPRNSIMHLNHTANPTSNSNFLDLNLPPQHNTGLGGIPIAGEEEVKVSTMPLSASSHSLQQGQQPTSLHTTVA

GST-fused CNOT6 (mouse) = GST-fused CNOT6 (mouse) (UniProt Q8K3P5); assay: as above
GST-fused CNOT6L (mouse) = GST-fused CNOT6L (mouse) (UniProt Q8VEG6); assay: as above
GST-fused CNOT9 (mouse) = GST-fused CNOT9 (mouse) (UniProt Q9JKY0); assay: as above

Substance: CNOT9 (endogenous, HeLa) (from UniProt Q92600 1-299)
binding [1]: no binding

Substance: HA-tagged CNOT6 (from UniProt Q8K3P5 1-557)
binding [1]: no binding

Substance: MBP-NANOS2 (from UniProt P60322 1-136)
binding (GST-fused CNOT10 (mouse)): no binding (tested: 1–5 mg of MBP-NANOS2) | binding (GST-fused CNOT2 (mouse)): no binding (tested: 1–5 mg of MBP-NANOS2) | binding (GST-fused CNOT3 (mouse)): no binding (tested: 1–5 mg of MBP-NANOS2) | binding (GST-fused CNOT4 (mouse)): no binding (tested: 1–5 mg of MBP-NANOS2) | binding (GST-fused CNOT6 (mouse)): no binding (tested: 1–5 mg of MBP-NANOS2) | binding (GST-fused CNOT6L (mouse)): no binding (tested: 1–5 mg of MBP-NANOS2) | binding (GST-fused CNOT9 (mouse)): no binding (tested: 1–5 mg of MBP-NANOS2)

The remaining lines, values ahead:

binding [1]: no binding
Substance: CNOT3 (endogenous, HeLa) (from UniProt O75175 1-753)

binding [2]: binds weakly | binding [3]: binds | binding [1]: no binding | binding [4]: binds
Substance: CNOT1 (endogenous, HeLa) (from UniProt A5YKK6 1-2376)

binding [1]: no binding
Substance: CNOT7 (endogenous, HeLa) (from UniProt Q9UIV1 1-285)
